Test results: paper PMC4336329 (PLoS ONE, 2015)
Among all 310,000 compounds or so, about 14,000 (4.5%) showed an effect of 50% or more. Effects have a minus sign here. The list shows a part of the results.

Target: human ether-à-go-go-related gene (hERG) potassium channel (human, UniProt Q12809)
Assay: primary screen, population patch clamp on CHO cells stably expressing hERG
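Further: peak tail current of the secondary pulse compared with the same well before compound.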

Sequence of human ether-à-go-go-related gene (hERG) potassium channel (Q12809 whole entry, looked up): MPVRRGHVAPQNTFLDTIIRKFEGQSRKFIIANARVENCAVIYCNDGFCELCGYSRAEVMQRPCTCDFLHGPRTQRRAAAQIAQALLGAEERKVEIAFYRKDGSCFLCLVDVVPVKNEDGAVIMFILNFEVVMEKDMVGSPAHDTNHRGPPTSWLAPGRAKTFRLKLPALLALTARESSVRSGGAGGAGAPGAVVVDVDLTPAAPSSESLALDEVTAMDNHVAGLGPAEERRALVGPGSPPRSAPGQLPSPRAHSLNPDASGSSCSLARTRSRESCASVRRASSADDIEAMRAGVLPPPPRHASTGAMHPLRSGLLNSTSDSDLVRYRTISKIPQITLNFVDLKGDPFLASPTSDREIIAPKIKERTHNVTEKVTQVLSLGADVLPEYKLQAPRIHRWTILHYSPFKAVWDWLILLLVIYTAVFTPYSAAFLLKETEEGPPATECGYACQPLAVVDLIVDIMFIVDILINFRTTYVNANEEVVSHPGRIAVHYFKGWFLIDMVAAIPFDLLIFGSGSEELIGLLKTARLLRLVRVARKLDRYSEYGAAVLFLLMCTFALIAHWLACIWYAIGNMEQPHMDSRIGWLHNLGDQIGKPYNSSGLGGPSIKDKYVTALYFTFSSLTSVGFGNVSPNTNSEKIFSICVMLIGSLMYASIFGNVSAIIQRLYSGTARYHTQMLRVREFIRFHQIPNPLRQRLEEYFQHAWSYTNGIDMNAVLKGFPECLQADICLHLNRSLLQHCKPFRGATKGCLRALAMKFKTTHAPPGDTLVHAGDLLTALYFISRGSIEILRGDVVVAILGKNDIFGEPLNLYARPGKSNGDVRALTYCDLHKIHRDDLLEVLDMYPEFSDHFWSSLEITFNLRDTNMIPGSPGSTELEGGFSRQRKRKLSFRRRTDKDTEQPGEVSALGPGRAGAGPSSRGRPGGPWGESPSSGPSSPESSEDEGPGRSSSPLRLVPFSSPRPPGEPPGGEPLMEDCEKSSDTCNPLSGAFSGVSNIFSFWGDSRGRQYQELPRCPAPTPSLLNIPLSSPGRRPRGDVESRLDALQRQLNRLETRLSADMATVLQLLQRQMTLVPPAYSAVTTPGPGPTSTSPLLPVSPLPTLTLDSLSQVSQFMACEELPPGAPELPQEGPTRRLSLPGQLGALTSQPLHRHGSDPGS

Row | Compound | hERG current change (%, negative = inhibition) at 10uM [%]
1 | CCCCCNC(=O)[C@@H]1CSC2c3ccccc3C(=O)N21 (stereo partly drawn) | 6.57
2 | Cc1nc(SC2CCOC2=O)c2c(C)c(C)sc2n1 (stereo not drawn) | -0.66
3 | CCOC(=O)c1c(C)oc2c1cc(NS(=O)(=O)c1ccc(C(=O)O)cc1)c1ccccc12 | -60.7
4 | Cc1ccc2[nH]c(=S)n(-c3cccnc3)c(=O)c2c1 | 15.1
5 | Cc1ccc(CN2[C@@H](CC3CCCCC3)COCCS2(=O)=O)cc1 | -19.3
6 | CCOc1ccc(/C=C/C(=O)c2c(O)cc(C)oc2=O)cc1 | 6.94
7 | CCOC(=O)Nc1ccc2c(c1)OCO2 | 26.2
8 | CCOc1ccc(C(=O)/C=C/c2cn(CN3CCN(C)CC3)c3ccccc23)cc1 | -8.09
9 | Cc1ccc(OC(=O)c2ccc(Cl)c([N+](=O)[O-])c2)cn1 | 15.9
10 | C=CCn1c(C)nnc1SCC(=O)NC1CC1 | 9.05
11 | Cc1ccc(NCC(=O)N/N=C\c2ccc[nH]2)cc1 | -27.6
12 | Cc1ccccc1-n1c(-c2csc(C)c2C)n[nH]c1=S | 17.6
13 | CCN1CCN(C(=O)CSc2nc3c(c(=O)n(C)c(=O)n3C)n2C)CC1 | 2.79
14 | O=C(C1=C(O)C(=O)N(Cc2ccccc2)C1c1cccnc1)c1ccco1 (stereo not drawn) | 0.0177
15 | CCC(COC)NC(=O)CCc1nnc(Cc2cccc(C(F)(F)F)c2)o1 (stereo not drawn) | 1.43
16 | O=C(Cn1nnc2ccccc2c1=O)NCC1CCC(C(=O)O)CC1 (stereo not drawn) | 13
17 | O=C(Oc1ccc[nH]c1=O)c1cc([N+](=O)[O-])cc([N+](=O)[O-])c1 | 13.5
18 | CC(OC(=O)c1ccc2c(=O)n3c(nc2c1)CCC3)C(=O)Nc1ccc(C(N)=O)cc1 (stereo not drawn) | 7.79
19 | CCOc1ccccc1O[C@H](c1ccccc1)[C@H]1CNCCO1.CS(=O)(=O)O.O | 16.2
20 | Cc1ccc(N2CCC(N3CCN(C)C(CCO)C3)CC2)cc1 (stereo not drawn) | 12.8
21 | CC(C)CNC(=O)C(=O)NCC1OCCCN1S(=O)(=O)c1ccc2c(c1)OCCO2 (stereo not drawn) | 4.37
22 | O=C1CS/C(=N/N=C/c2cccs2)N1Cc1ccc(F)cc1 | 9.38
23 | Cc1cc(O)c(C(=O)Nc2cccc(Cl)c2)c(=O)n1C | 19.3

Row | Compound | hERG current change (%, negative = inhibition) at 10uM [%]
24 | C=CCN(c1ccccc1)S(=O)(=O)c1cccc(C(=O)Nc2ncccc2O)c1 | 8.35
25 | CC(C)Cn1c(N)c(C(=O)CSc2ncnc3sc4c(c23)CCCC4)c(=O)n(C)c1=O | -0.479
26 | Cc1cc2ncn(-c3ncnc4sc5c(c34)CCCC5)c2cc1C | -23.7
27 | O=C(CC1SC2=NCCN2C1=O)Nc1ccccc1 (stereo not drawn) | -2.72
28 | O=C(c1ccc(Cl)cc1)c1cnc2ccccn12 | 9.53
29 | CNC(=S)N/N=C/c1ccc(OCc2ccccc2)c(Br)c1 | 1.47
30 | Cc1cc(Cl)ccc1OCCCC(=O)NCc1ccncc1 | -44.4
31 | O=C(O)C1CCN(C(=O)CSc2nc3ccccc3s2)CC1 | 16
32 | CCOC(=O)C1CCN(C(=O)COC(=O)c2ccccc2C(=O)c2ccc(Cl)cc2)CC1 | -50.4
33 | COc1ccc(Cc2nnc(SCC(=O)Nc3ccc(N4CCOCC4)cc3)o2)cc1 | 4.93
34 | Cc1csc(=NC(=O)c2ccccc2)n1Cc1ccco1 | -2.29
35 | CC(/C=N/NC(=O)c1c(Br)cnn1C)=C\c1ccccc1 | -13
36 | COc1cc(C(=O)NC(=S)N(C)Cc2ccccc2)cc(OC)c1OC | -6.48
37 | CCN(Cc1ccccc1)S(=O)(=O)c1c(C(=O)N2CCCC2)c(C)n(C)c1C | -3.66
38 | O=C(COc1ccc(-c2ccccc2)cc1)N1CCN(C(=O)c2cccs2)CC1 | -41.8
39 | Nc1nc2ncc(CNc3ccc(C(=O)N[C@@H](CCC(=O)O)C(=O)O)cc3)nc2c(=O)[nH]1 | 5.77
40 | CCc1nc(C)cc(N)c1OCc1ccccc1.Cl.O | -23.2
41 | O=c1[nH]c2cccc(Cl)c2n(CCNc2ncc(C(F)(F)F)cc2Cl)c1=O | -44.1
42 | Cc1cccc(OCCCn2c(=O)oc3ccc(C)cc32)c1 | 10
43 | NCCc1nnc(SCC(=O)Nc2ccc(Br)cc2)o1 | 13
44 | C/C(=N/OC(=O)c1c(F)cccc1F)c1nccs1 | 3.34
45 | C=CCC1c2cccc(C(=O)O)c2C(=O)N1c1cccc(OC)c1 (stereo not drawn) | 19.8
